# According to article PMC7819943, “Rice protein-binding microarrays: a tool to detect cis-acting elements near promoter regions in rice”:
# This is one part of the list.
# Target: T1, OsWOX13 (Oryza sativa, UniProt Q5QMM3 1-267)
# T1 sequence: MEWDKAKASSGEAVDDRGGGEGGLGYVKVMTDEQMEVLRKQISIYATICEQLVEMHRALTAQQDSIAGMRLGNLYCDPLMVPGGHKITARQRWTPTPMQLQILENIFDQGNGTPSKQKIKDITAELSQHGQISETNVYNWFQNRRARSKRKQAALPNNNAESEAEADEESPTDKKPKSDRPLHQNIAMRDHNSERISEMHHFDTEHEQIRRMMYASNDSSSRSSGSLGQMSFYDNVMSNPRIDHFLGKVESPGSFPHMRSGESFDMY
# Experiment: protein-binding microarray (RPBM); PBS, 2% BSA, 51.3 ng/ul salmon testes DNA, 50 uM zinc acetate, 200 nM TF, 25 C, 1 h; high values mean tight binding
# Settings: protein: recombinant; tags: N-terminal polyhistidine and DsRed monomer fusion (pET32a); label: CyDye5-dUTP incorporated in the synthesized complementary strand; 3' TTTTT single-stranded linker to array surface; dsDNA, one strand shown
# Outline: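 The binding signal is fluorescence intensity per feature, in arbitrary units, read on an Axon 4000B scanner. Polyhistidine- and DsRed-tagged transcription factors (N-terminal fusions) from E. coli BL21-CodonPlus were purified on Ni–NTA and applied at 200 nM for 1 h at 25 °C to a double-stranded, BSA-blocked custom Agilent array in buffer with 50 µM zinc acetate.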
row,Sequence,binding signal
1,ATGTTTACTAGTTAACTAGCATTCCTTTAATTTCATATTTCGGAGTCACCTAGTGCAG,5090 fluorescence intensity (a.u.)
2,GGATGTCATGATAATTGACTTATGACAATGTGATTATTTCCGGAGTCACCTAGTGCAG,19700 fluorescence intensity (a.u.)
3,TCGGGATTGAAACCAAGCACCCCTTGCCACCACACTAGCACGGAGTCACCTAGTGCAG,13800 fluorescence intensity (a.u.)
4,TTTAGGTGATTAGCCTGTTGTATTGCGATTTTCTATATGGCGGAGTCACCTAGTGCAG,23800 fluorescence intensity (a.u.)
5,TCATTTTAATTGACGCTTTGGACAATGACACGTTCTACAACGGAGTCACCTAGTGCAG,29200 fluorescence intensity (a.u.)
6,ACGGGGTAGGTAATTGGGAGAGAATTCCTCCTTTACTTTTCGGAGTCACCTAGTGCAG,5100 fluorescence intensity (a.u.)
7,CATTGATCAATTATGGCTTTAAATATAAATATACCACCAGCGGAGTCACCTAGTGCAG,29500 fluorescence intensity (a.u.)
8,GTAGGAAATCACCACCAATCCCACCGATTCCTCTCCACCGCGGAGTCACCTAGTGCAG,3450 fluorescence intensity (a.u.)
9,CTAATTAAAACCGTTATAATAGGTTCTATGACAGTATTGCCGGAGTCACCTAGTGCAG,6250 fluorescence intensity (a.u.)
10,ATTAACCATAACCTAATTTGGATAAGCCGACATGGATCGGCGGAGTCACCTAGTGCAG,8230 fluorescence intensity (a.u.)
11,CTTTTGGTATGCTTGATTGTTGTGTTTTGATCCTACAAATCGGAGTCACCTAGTGCAG,4580 fluorescence intensity (a.u.)
12,ATGCTAACTTGAGGTGATCATAATCCTGATTGCATCTCATCGGAGTCACCTAGTGCAG,6000 fluorescence intensity (a.u.)
13,TTGGCTGAACATCATAGTTTTGATTGAGCCCACAGCAGAACGGAGTCACCTAGTGCAG,4280 fluorescence intensity (a.u.)
14,TTCAGATGTATATATAATTAATTGTACTCCTAGTGCACACCGGAGTCACCTAGTGCAG,13800 fluorescence intensity (a.u.)
15,TTTTGACTGCAGAATCCTAATCCATTCTCTCACATGGCAGCGGAGTCACCTAGTGCAG,16300 fluorescence intensity (a.u.)
16,CCACGTAACATCCATTAAATTACTTGGAGTCTTCCTCGCACGGAGTCACCTAGTGCAG,6050 fluorescence intensity (a.u.)
17,TTTTCATCTTAATTATACAGGTAGCAAGAACTGGCATGGCCGGAGTCACCTAGTGCAG,3780 fluorescence intensity (a.u.)
18,GGAGGACATTGTGATTGGAAATAAATAGATGCAGAGGCAACGGAGTCACCTAGTGCAG,22600 fluorescence intensity (a.u.)
19,TATTATTGTTTGTCATTAGCAATCTTAAGTTATGCATAGACGGAGTCACCTAGTGCAG,5930 fluorescence intensity (a.u.)
20,TGTAATTGGCTGAGAGACCGTAACAACGTGACATGGCTCACGGAGTCACCTAGTGCAG,29700 fluorescence intensity (a.u.)
21,CCTTTTGTGACCGGTTTTGATTAGTTATGGGACGCGGAATCGGAGTCACCTAGTGCAG,5300 fluorescence intensity (a.u.)

row,Sequence,binding signal
1,AATTCAATTAGAATGACAATGTAGAAGTGCTAAATTATCACGGAGTCACCTAGTGCAG,9940 fluorescence intensity (a.u.)
2,ACCTCAATGATTAATTTGCTCGTGGGCCCCACCCCACCACCGGAGTCACCTAGTGCAG,42500 fluorescence intensity (a.u.)
3,GGATAAAATTTAAATTGTACCAGTTTACGACGAATTACATCGGAGTCACCTAGTGCAG,8600 fluorescence intensity (a.u.)
4,ATCCCTAATACGATTTACATGATTAGAGGAGAGACAATTTCGGAGTCACCTAGTGCAG,4470 fluorescence intensity (a.u.)
5,ATAAATCACATATAACAAAATAGGACTTGAACTACTCCTGCGGAGTCACCTAGTGCAG,3720 fluorescence intensity (a.u.)
6,GTAATAATTAAAACTCAATCAATCATATATTAATACCACCCGGAGTCACCTAGTGCAG,44400 fluorescence intensity (a.u.)
7,AAAATTAACCATAAATCAATATGATGGGAGAATGGTAGTACGGAGTCACCTAGTGCAG,20100 fluorescence intensity (a.u.)
8,GCCGGGAGGGAGGGAGGGAGGGAGGGAGGGAGACCCCGCACGGAGTCACCTAGTGCAG,9960 fluorescence intensity (a.u.)
9,ACACAAATTTCCAACTTTTCCGTCACATCGTTCCAATTTCCGGAGTCACCTAGTGCAG,3250 fluorescence intensity (a.u.)
10,ACTGACTGGCACACCCACATCTCATCATATTTGGACCTGCCGGAGTCACCTAGTGCAG,33700 fluorescence intensity (a.u.)
11,TAAATTAATATTTGTCCAGTCAAGCTGGAATACGTCGTAGCGGAGTCACCTAGTGCAG,7760 fluorescence intensity (a.u.)
12,CCGATTGGATACGTCTGATTTTAATTAATGGGCCAGGAAGCGGAGTCACCTAGTGCAG,14000 fluorescence intensity (a.u.)
13,GTATATTAATATATGATATACAGATTGCCAGGCAATAAACCGGAGTCACCTAGTGCAG,3840 fluorescence intensity (a.u.)
14,CACTGATTTGGTGGCTGACATGTGGACCTGAGAGTTGTGTCGGAGTCACCTAGTGCAG,35300 fluorescence intensity (a.u.)
15,TTTGGATTGATGCTAAAATATGCCCTACCAATTGTTTAGCCGGAGTCACCTAGTGCAG,30000 fluorescence intensity (a.u.)
16,TCCTTGATTTCTCCCCTCTCTCTGTCATTTCTCTCTTCCTCGGAGTCACCTAGTGCAG,13500 fluorescence intensity (a.u.)
17,CACACTAATTACCTGTTTAATTAATTAACTCTCCAGCCGGCGGAGTCACCTAGTGCAG,52000 fluorescence intensity (a.u.)
18,GTCATAATTATTTGAGTTACATATAAACAACGAGGTAACACGGAGTCACCTAGTGCAG,20500 fluorescence intensity (a.u.)
19,ATTAATTGTATTCTGATAAAATTCGTGTCCATGCAGTTATCGGAGTCACCTAGTGCAG,27600 fluorescence intensity (a.u.)
20,CAAATAATTTTGTATGATTGCTAGCCGTGTAATTAGGTAGCGGAGTCACCTAGTGCAG,43300 fluorescence intensity (a.u.)
21,CAATAAATTTTGAGGATAAACAAATATGGCTAAAAGTTCACGGAGTCACCTAGTGCAG,3360 fluorescence intensity (a.u.)

row,Sequence,binding signal
1,CTTGGCTTCAATCCAAATTCTTGATTACAGCAAGACGGGACGGAGTCACCTAGTGCAG,14000 fluorescence intensity (a.u.)
2,TGTTAATTATGCCCTCGGTCCAATTGTGATATTCTGTTGACGGAGTCACCTAGTGCAG,38300 fluorescence intensity (a.u.)
3,CTGGAAATTTGGGTTAAATTTCTGGGCGTGACAACGACGACGGAGTCACCTAGTGCAG,10000 fluorescence intensity (a.u.)
4,ACTTGATTTATTTAAACTATAAACTTGCAACTTAAAAGTTCGGAGTCACCTAGTGCAG,37600 fluorescence intensity (a.u.)
5,GACACCCTTATGATTACTTTTAAAAGATAGGGCCAACATACGGAGTCACCTAGTGCAG,3370 fluorescence intensity (a.u.)
6,GCTGATTACATTTCCTGCACTGAAGTACAAACACGAGGATCGGAGTCACCTAGTGCAG,38000 fluorescence intensity (a.u.)
7,GCACGGTTTGATTTGACGAAATGGTGTACAAATTCCAGCACGGAGTCACCTAGTGCAG,9830 fluorescence intensity (a.u.)
8,GGCGGTGGGTGGGTGGAGCCGTGGAGGGATGGAGGGAGGGCGGAGTCACCTAGTGCAG,9980 fluorescence intensity (a.u.)
9,ATTTCTTTAATTAATTAATTAATTAACATATATATCCCTTCGGAGTCACCTAGTGCAG,60600 fluorescence intensity (a.u.)
10,GTGTAATTACACTGTAATTCCTCTGTCAAAAGAAATTTAACGGAGTCACCTAGTGCAG,16200 fluorescence intensity (a.u.)
11,ATATTAATCCATGATTTGCTACAGTGATGCTATAATTGTCCGGAGTCACCTAGTGCAG,13400 fluorescence intensity (a.u.)
12,TTGGGATTAATTTGGTTGTGCTTTCTCCTCTTCCACCAGCCGGAGTCACCTAGTGCAG,13600 fluorescence intensity (a.u.)
13,AAATAAATTTGAACTAAAATGAAAATTTGAAGGTATAGCACGGAGTCACCTAGTGCAG,12600 fluorescence intensity (a.u.)
14,AACTGCAAATTTGTCTATATACAAAATTTGTCTCCACGTTCGGAGTCACCTAGTGCAG,8160 fluorescence intensity (a.u.)
15,CTTTTCCTTTGTCTCTTTCCGTCATTATCTAATATTCTTTCGGAGTCACCTAGTGCAG,5970 fluorescence intensity (a.u.)
16,GATAATGCATATGATTGACGTCGTGTTTATCTGATGTTAGCGGAGTCACCTAGTGCAG,31000 fluorescence intensity (a.u.)
17,AAATAATTGCACAGTTTGCATGTAAATTGCGAGACGGACCCGGAGTCACCTAGTGCAG,25800 fluorescence intensity (a.u.)
18,GAATAAATTGCATGAGCAATGGACGTTTTCCTAGCCTTGTCGGAGTCACCTAGTGCAG,6910 fluorescence intensity (a.u.)
19,TTTTGTGATAGATTTTATATTAAATATATAGTTTTGTTTTCGGAGTCACCTAGTGCAG,23400 fluorescence intensity (a.u.)
20,CGGGTCAATCAGAAAATTCGGTGGCAATAATATATATACCCGGAGTCACCTAGTGCAG,15400 fluorescence intensity (a.u.)
21,TTCAAAATATCTCGGATTGATAAATTTTGGAGGTAGTAGTCGGAGTCACCTAGTGCAG,6920 fluorescence intensity (a.u.)

row,Sequence,binding signal
1,TCATCATCTTTAATTAATTCGATCTCTCCGGGACTATCTACGGAGTCACCTAGTGCAG,4500 fluorescence intensity (a.u.)
2,ATCAATCATGGGCAAATCATATAGGACTTGGTTGCACATTCGGAGTCACCTAGTGCAG,26700 fluorescence intensity (a.u.)
3,ATAAATTAAAGAAGTTACAATACTGGTGCCATGGAGAAACCGGAGTCACCTAGTGCAG,5540 fluorescence intensity (a.u.)
4,AGTTATTTTGTTAACTATTTGATTGGTGTTGACAGGTAGGCGGAGTCACCTAGTGCAG,23100 fluorescence intensity (a.u.)
5,GAGTGATTAGAATCCATTTCTGCTTTCAATTCAAATATAGCGGAGTCACCTAGTGCAG,20300 fluorescence intensity (a.u.)
6,AACACAATGCTGCGTCAATTATACATATCTGTATGTCCATCGGAGTCACCTAGTGCAG,3690 fluorescence intensity (a.u.)
7,ACGGCGGCGGATGTGATTGGTGTGTCCAACCACTTGCCCGCGGAGTCACCTAGTGCAG,9400 fluorescence intensity (a.u.)
8,TTATAATCTAGATTAGAGGGACTAGCACCAGTAGTCGGCACGGAGTCACCTAGTGCAG,7440 fluorescence intensity (a.u.)
9,CAGTCAAACATATGGAATTGACTATGATGAGACATTTGCACGGAGTCACCTAGTGCAG,5380 fluorescence intensity (a.u.)
10,TAAAATTACATATGTAATTTAGGGACTTACAATGTAAATGCGGAGTCACCTAGTGCAG,26500 fluorescence intensity (a.u.)
11,ATATGATTGCCAGAAAAGGGACGAATGAACGAAGAATATACGGAGTCACCTAGTGCAG,13400 fluorescence intensity (a.u.)
12,CCTATATAAATTATCCGAGTACTAATACGTCGAATAAGGTCGGAGTCACCTAGTGCAG,3240 fluorescence intensity (a.u.)
13,CACCCAATCACAATCCAACCCACGCCATTGCAACCAAATTCGGAGTCACCTAGTGCAG,4130 fluorescence intensity (a.u.)
14,TAATTAGATTTAATAAATTTGTTTTGCAGTTTACAGACAACGGAGTCACCTAGTGCAG,22700 fluorescence intensity (a.u.)
15,ACGGTGTGATTAATTACGTCGCGATCATGTTGTGCTAATCCGGAGTCACCTAGTGCAG,32500 fluorescence intensity (a.u.)
16,CAAAAGTGTTCAATCAAATATGAAAATGAGTATAATGCAACGGAGTCACCTAGTGCAG,6990 fluorescence intensity (a.u.)
17,AATGCAATCAAAGAGACAATTAGATTGATCATTTATGTGTCGGAGTCACCTAGTGCAG,41000 fluorescence intensity (a.u.)
18,ACTAAGTGCGTGATTGTTTCAGATTTGTTTGGGTTGCGGTCGGAGTCACCTAGTGCAG,19700 fluorescence intensity (a.u.)
19,GCTAATTAAATAACCTACCAGCTTATCACTACAGCTACAACGGAGTCACCTAGTGCAG,23300 fluorescence intensity (a.u.)
20,AGCTCATCTGATTTGCATTTCAAGTCCAAAATTCCTTACTCGGAGTCACCTAGTGCAG,5680 fluorescence intensity (a.u.)
21,CGTTTCTGATTTGATTCTTCCAAATTTTGGGTTCCTGATTCGGAGTCACCTAGTGCAG,24800 fluorescence intensity (a.u.)
